“And” between values parts separate entries of the source, which are not always exact repeats. Equal values may be shown once. The whole screen tested about 420,000 compounds, of which about 64,000 (15%) were called active. The inconclusive results got no clear call from the source; some entries with a clear call stand among them for comparison. The call rests on the fitted dose curve; in most records, active means well fitted inhibition curve with a large enough effect; inconclusive means small, poorly fitted or top-dose-only effect; inactive means flat fitted curve, though single readings scatter. Potencies beside an inconclusive call are fits to weak or partial responses and may not hold up.
assay: qHTS for Inhibitors of human tyrosyl-DNA phosphodiesterase 1 (TDP1): qHTS in cells in absence of CPT; conditions: DT40 Tdp1-/- hTDP1 cells, no CPT, ATP luminescence, 48 h; activity change, negative = growth inhibition: at 46.2 µM (top of the series) unless noted; further: nearly all actives have a fitted effect of over 55% in size
Procedure, shortened: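 Readout: luminescence from CellTiter-Glo after 30 min in the dark at RT. Cells: DT40 Tdp1-/- with stable hTDP1, 400/well. Exposure: compounds alone, ≥48 hr, 37 °C.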
On the % scale 0 is the no-effect control and ±100 the full control effect; potency means the concentration at half of the fitted maximal effect; tags describe the fitted curve by direction and shape.

Compound | Potency | activity change, negative = growth inhibition
CCOC(=O)N1CCN(S(=O)(=O)c2ccc(F)c(C(=O)Nc3cccc(Cl)c3C)c2)CC1 | inconclusive: 23.1 µM [inhibitor, single point] | –
O=C(/C=C/c1ccc(Br)cc1)Nc1ccc(S(=O)(=O)Nc2ncccn2)cc1 | – | inactive: 6.68%
O=C(CCc1nc2ccccc2c(=O)[nH]1)Nc1cc(C(F)(F)F)ccc1N1CCOCC1 | inconclusive: 25.9 µM [inhibitor, single point] | –
Cn1cc(Br)c(C(=O)Nc2ncc(Br)s2)n1 | – | inactive: -26%
O=[N+]([O-])c1ccc2nnn(O)c2c1 | – | inconclusive: -21.4% [inhibitor]
CC(=O)Nc1ccc(C2NC(=S)N(c3ccccc3C(F)(F)F)C(C)=C2C(=O)N2CCOCC2)cc1 (stereo not drawn) | – | inconclusive: -31.5% [inhibitor]
COc1ccc(OCCN2CCC(C(=O)NC(c3ccc(F)cc3)c3ncccc3C)CC2)cc1 (stereo not drawn) | active: 16.4 µM | –
COc1ccc(N(C)S(=O)(=O)c2ccc3c(c2)CCN3C(=O)C2CC2)c(OC)c1 | active: 18.4 µM | –
N#CCCNc1ccc(OCCC#N)cc1 | – | inactive: -18.7%
O=c1c2ccccc2nc(-c2ccco2)n1/N=C/c1ccccc1O | inconclusive: 14.6 µM [inhibitor, partial curve] | –
CC(C)(C)c1ccc(C(O)c2ncc(-c3cccc(F)c3)[nH]2)cc1 (stereo not drawn) | inconclusive: 25.9 µM [inhibitor, partial curve] | –
CCOC(=O)C(=CNc1ccc(C(F)(F)F)cc1)C(=O)OCC | – | inactive: -32.5%
Cc1ccc(CNc2ncnc3nc[nH]c23)cc1 | inconclusive: 35.5 µM [inhibitor, single point] | –
O=C(COc1ccc(Cl)cc1Br)OCC(=O)c1ccc[nH]1 | – | inactive: -0.204%
CCOC(=O)N1CCC(NC(=O)c2ccc3c(c2)N(Cc2ccccc2)CCS3)CC1 | active: 14.6 µM | –
CCCCN(CCCC)c1ccc(Cn2ccc3ccccc32)cc1 | active: 8.91 µM | –
O=C(Oc1ccccc1N1C(=O)C2CC=CCC2C1=O)c1ccc(Br)cc1 (stereo not drawn) | – | inconclusive: -18.5% [inhibitor]
Cc1ccc(NS(=O)(=O)c2ccc(-n3cccn3)cc2)c(C)c1 | inconclusive: 23.1 µM [inhibitor, single point] | –
COc1ccc(-n2nnnc2SCC(=O)c2cccc(OC)c2)cc1 | inconclusive: 20.6 µM [inhibitor, single point] | –
CCOC(=O)c1ccc(NC(=O)C2CC(=O)N(c3ccc4c(c3)OCCO4)C2)cc1 (stereo not drawn) | – | inactive: -1.25%
COc1cc(OC)c(C(=O)OCC(=O)N2CCN(S(=O)(=O)c3ccc(C)cc3C)CC2)cc1OC | inconclusive: 29.1 µM [inhibitor, single point] | –
COC(=O)c1ccc(NC(=O)NCCCl)cc1 | inconclusive: 25.9 µM [inhibitor, single point] | –

Compound | Potency | activity change, negative = growth inhibition
CC(C)C(NC(=O)c1ccc(C(C)(C)C)cc1)C(=O)N1CCC(C(N)=O)CC1 (stereo not drawn) | inconclusive: 20.6 µM [inhibitor, single point] | –
O=C(CN1CCOCC1)Nc1ccc(N2CCN(c3ccccc3)CC2)c(F)c1 | inconclusive: 20.6 µM [inhibitor, partial curve] | –
COc1cccc(CSc2nc3ccccc3[nH]2)c1 | inconclusive: 20.6 µM [inhibitor, single point] | –
CCOC(=O)C1(C)C=C(Nc2ccc(OC)cc2)C(=O)N1c1ccccc1 (stereo not drawn) | inconclusive: 29.1 µM [inhibitor, single point] | –
Cn1cc(CCNC(=O)CC2C(=O)NCCN2Cc2cccc(Oc3ccccc3)c2)cn1 (stereo not drawn) | inconclusive: 7.31 µM [inhibitor, partial curve] | –
COc1ccccc1NC(=O)c1oc2ccccc2c1NC(=O)c1c(F)cccc1F | inconclusive: 16.4 µM [inhibitor, single point] | –
O=C(O)C1CC=CCC1C(=O)Nc1ccc(S(=O)(=O)N2CCCc3ccccc32)cc1 (stereo not drawn) | – | inconclusive: -32% [inhibitor]
COc1ccc(Cn2cc(C(=O)c3ccc(Cl)cc3)c(=O)c3cc4c(cc32)OCO4)cc1 | active: 23.1 µM | –
Cc1cccc(NCc2nc3ccccc3n2Cc2ccccc2)c1 | inconclusive: 25.9 µM [inhibitor, single point] | –
O=C(Nc1ccc(Cl)c([N+](=O)[O-])c1)c1ccco1 | inconclusive: 29.1 µM [inhibitor, single point] | –
O=C(NC(=S)Nc1ccc2[nH]c(=O)[nH]c2c1)c1ccccc1[N+](=O)[O-] | – | inactive: -4.04%
CC(=O)N1c2ccc(C)cc2C(c2ccccc2)CC1C (stereo not drawn) | inconclusive: 29.1 µM [inhibitor, single point] | –
CCOC(=O)C1(CC2CC2)CCN(Cc2cnc(-c3ccccc3C)nc2)CC1 | active: 18.4 µM | –
CC(C)C[C@@H](COc1ccccc1)N1CCN(Cc2ccccc2)CCC1=O | inconclusive: 35.5 µM [inhibitor, single point] and inconclusive: 20.6 µM [inhibitor, partial curve] | –
CCCC(c1nnnn1Cc1ccc(OC)cc1)N1CCN(c2ccccc2OC)CC1 (stereo not drawn) | active: 20.6 µM | –
CC(=O)Nc1ccc(-c2ccnc3c2CC(C)(C(=O)NCc2ccc(N(C)C)cc2)O3)cc1 (stereo not drawn) | inconclusive: 0.184 µM [inhibitor, full curve, poor fit] | –
Cc1ccccc1N(CC(=O)N1CCN(Cc2ccccc2)CC1)S(C)(=O)=O | inconclusive: 9.2 µM [inhibitor, partial curve] | –
COc1ccc(CNC(=O)CN(Cc2ccccc2OC)C(=O)c2csnn2)cc1 | inconclusive: 29.1 µM [inhibitor, partial curve, poor fit] | –
CCN(CC)S(=O)(=O)c1cccc(C(=O)NC2CCCCC2)c1 | inconclusive: 7.31 µM [inhibitor, partial curve] | –
CCOc1ccc(NC(=O)C2CCN(C(=O)C3CC(=O)N(c4ccc(C)cc4)C3)CC2)cc1 (stereo not drawn) | inconclusive: 20.6 µM [inhibitor, partial curve] | –
CCc1nc2ccccc2c(C(=O)OCC(=O)NC(=O)c2cccn2C)c1C | inconclusive: 20.6 µM [inhibitor, single point] | –

Source: PubChem BioAssay AID686978 (National Center for Advancing Translational Sciences (NCATS), 2013)
